Reference: the supplement of paper PMC3694890
± gives the uncertainty stated by the source. The list shows a part of the results. Phosphotyrosine is written y.

Biological target: GRB2 (endogenous complexes from cell lysate), P62993
Experiment: GRB2 complex binding differential signal (pY peptide minus Ala control peptide) (fluorescence intensity units); higher = stronger GRB2 complex binding
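Also: phosphopeptide probes on the chip at 1–4 µM, lysate proteins bound in 20 mM Tris pH 7.0 buffer with 140 mM NaCl, 1% Triton X-100 and 5% glycerol.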

Binder	GRB2 complex binding differential signal (MCF7)	GRB2 complex binding differential signal (MCF10A)	GRB2 complex binding differential signal (MDA-MB-231)	GRB2 complex binding differential signal (T47D)
yEEVPT [PLCG1_472/A1]	1680 ± 300	2140 ± 960	1340 ± 500	1360 ± 1700
yVEANP [PLCG1_783/A1]	2300 ± 370	1960 ± 1400	1010 ± 380	934 ± 940
yVLCPS [AXL_866/A1]	2640 ± 2100	570 ± 230	604 ± 350	465 ± 1100
yHGHTL [PLCG1_379/A1]	-146 ± 250	189 ± 260	367 ± 370	412 ± 950
yENPTG [PTK6_447/A1]	16800 ± 940	9710 ± 3000	12300 ± 1100	19300 ± 4100
yKNILP [PTPN11_279/A1]	54700 ± 11000	49300 ± 8400	13000 ± 3200	34800 ± 12000
yEGRNP [PLCG1_775/A1]	2810 ± 790	2300 ± 510	560 ± 380	783 ± 1700
yVDPSE [PLCG2_759/A1]	4410 ± 490	2510 ± 710	2310 ± 480	640 ± 1000
yQEKCN [PLCG2_1245/A1]	820 ± 310	673 ± 320	569 ± 320	191 ± 950
yQQPFE [PLCG1_1253/A1]	2630 ± 580	1100 ± 310	1140 ± 370	1980 ± 1200
yLSHDH [PTK6_342/A1]	302 ± 240	422 ± 810	654 ± 280	95.4 ± 880
yVNGKT [PSA2_167/A1]	38800 ± 4700	7160 ± 2100	12900 ± 1900	33300 ± 6500
yDTHQN [PLCG2_1217/A1]	1360 ± 430	1510 ± 480	872 ± 510	190 ± 970
yDVSRM [PLCG2_753/A1]	80.6 ± 360	787 ± 450	368 ± 320	122 ± 830
yPHYFV [PLCG1_506/A1]	120 ± 360	-16 ± 140	130 ± 280	76.8 ± 920
yPVTPE [PLCG2_733/A1]	211 ± 560	840 ± 540	462 ± 380	94.4 ± 950
yGDRTS [PKN2_810/A1]	1230 ± 360	1320 ± 760	462 ± 500	560 ± 1200

Binder	GRB2 complex binding differential signal (MCF7)	GRB2 complex binding differential signal (MCF10A)	GRB2 complex binding differential signal (MDA-MB-231)	GRB2 complex binding differential signal (T47D)
yLVYQE [PSA2_98/A1]	-684 ± 2700	22.5 ± 150	506 ± 270	
ySSCRQ [PLCG2_1197/A1]	2820 ± 860	1200 ± 280	467 ± 320	720 ± 3200
ySENDI [PLCG1_481/A1]	11600 ± 7300	561 ± 270	1080 ± 400	2200 ± 1600
yVNMDE [AXL_821/A1]	18700 ± 3500	12500 ± 2500	6540 ± 1100	11800 ± 3200
yQEPIP [PSA2_101/A1]	4570 ± 780	4020 ± 470	1430 ± 660	1120 ± 1800
yVLSVR [PTK6_114/A1]	1220 ± 950	1310 ± 240	1110 ± 540	1050 ± 850
yINANI [PTPN11_304/A1]	44200 ± 4600	25200 ± 4400	8960 ± 2300	19100 ± 4400
yKWTAP [PTK6_351/A1]	246 ± 1900	302 ± 300	591 ± 460	133 ± 910
yMVLEY [PTK7_872/A1]	-19.2 ± 360	113 ± 130	480 ± 370	1.84 ± 1100
yNMERD [PLCG2_743/A1]	-9200 ± 1600	-1850 ± 1600	-147 ± 310	-819 ± 2000
yTQSGG [PSA2_121/A1]	1680 ± 530	2460 ± 400	1070 ± 500	1360 ± 1200
yGALYE [PLCG1_771/A1]	-87.7 ± 210	185 ± 150	470 ± 260	508 ± 970
ySRKEG [PTPN11_263/A1]	1340 ± 520	1830 ± 440	363 ± 510	709 ± 1600
yRDMSS [PLCG1_977/A1]	1240 ± 340	791 ± 360	933 ± 440	2660 ± 1400
ySGMGP [PSA2_76/A1]	1850 ± 380	898 ± 340	732 ± 360	295 ± 1000
yQVPGP [BCAR1_128/A1]	22000 ± 4000	4630 ± 1700	1340 ± 480	2060 ± 1100
